According to PMC10411901, “FIRRM cooperates with FIGNL1 to promote RAD51 disassembly during DNA repair” (Science Advances, 2023):
Where a chain is given by its changes, count along the chain named. Results are given in words; binding and its absence hold for the method and conditions named. Some binding calls cover weakened binding; strength is not graded here. Where a sequence is shown, tags or fusion partners need not be part of it.

Key:
Experiment in all cases: LacO/LacR tethering assay (recruitment to a LacO array in cells); mCherry-LacRnls-bait transiently transfected and held at the LacO array of U2OS 2-6-5 cells; colocalization of the GFP-tagged prey at the mCherry locus quantified; FOK1 nuclease not expressed
[1] = biological target: T1, mCherry-LacRnls-FIGNL1 amino acids 1 to 360 (human) (UniProt Q6PIW4)
T1 sequence: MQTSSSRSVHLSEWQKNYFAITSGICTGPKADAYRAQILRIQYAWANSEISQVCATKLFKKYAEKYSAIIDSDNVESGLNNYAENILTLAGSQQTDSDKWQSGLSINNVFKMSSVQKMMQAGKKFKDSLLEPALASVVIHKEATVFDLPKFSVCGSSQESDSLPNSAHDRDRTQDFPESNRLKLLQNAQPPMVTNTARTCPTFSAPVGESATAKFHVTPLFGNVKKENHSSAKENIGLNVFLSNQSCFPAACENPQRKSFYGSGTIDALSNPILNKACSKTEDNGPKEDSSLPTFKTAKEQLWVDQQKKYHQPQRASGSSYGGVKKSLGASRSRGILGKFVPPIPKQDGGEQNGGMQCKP

[2] = biological target: T2, mCherry-LacRnls-FIGNL1 KDm (K447A/D500A) (human) (UniProt Q6PIW4)
T2 sequence: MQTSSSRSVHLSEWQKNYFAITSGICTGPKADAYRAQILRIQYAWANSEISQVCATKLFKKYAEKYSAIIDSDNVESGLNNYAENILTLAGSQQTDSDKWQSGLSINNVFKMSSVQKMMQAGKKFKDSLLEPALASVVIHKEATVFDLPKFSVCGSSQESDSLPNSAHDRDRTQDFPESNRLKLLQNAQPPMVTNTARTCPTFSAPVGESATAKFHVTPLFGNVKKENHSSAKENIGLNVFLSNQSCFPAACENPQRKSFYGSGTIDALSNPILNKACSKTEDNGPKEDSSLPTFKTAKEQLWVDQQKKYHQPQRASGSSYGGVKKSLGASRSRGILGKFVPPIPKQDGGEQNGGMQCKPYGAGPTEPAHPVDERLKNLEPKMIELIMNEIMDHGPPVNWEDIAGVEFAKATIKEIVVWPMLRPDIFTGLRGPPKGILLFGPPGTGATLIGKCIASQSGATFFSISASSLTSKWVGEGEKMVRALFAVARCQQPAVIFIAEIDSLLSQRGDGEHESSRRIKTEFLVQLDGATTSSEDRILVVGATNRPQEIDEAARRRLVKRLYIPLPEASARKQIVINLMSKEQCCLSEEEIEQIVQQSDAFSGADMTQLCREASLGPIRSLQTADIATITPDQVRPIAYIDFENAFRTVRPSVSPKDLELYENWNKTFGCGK

[3] = biological target: T3, mCherry-LacRnls-FIGNL1 (human) (UniProt Q6PIW4)
T3 sequence: T2 sequence with A447K, A500D

[4] = biological target: T4, mCherry-LacRnls-FIGNL1 K447A (human) (UniProt Q6PIW4)
T4 sequence: T2 sequence with A500D

Measured: binding

B1: GFP-FIRRM full length (protein, UniProt Q9NSG2 1-853)
chain: MFLPHMNHLTLEQTFFSQVLPKTVKLFDDMMYELTSQARGLSSQNLEIQTTLRNILQTMVQLLGALTGCVQHICATQESIILENIQSLPSSVLHIIKSTFVHCKNSESVYSGCLHLVSDLLQALFKEAYSLQKQLMELLDMVCMDPLVDDNDDILNMVIVIHSLLDICSVISSMDHAFHANTWKFIIKQSLKHQSIIKSQLKHKDIITSLCEDILFSFHSCLQLAEQMTQSDAQDNADYRLFQKTLKLCRFFANSLLHYAKEFLPFLSDSCCTLHQLYLQIHSKFPPSLYATRISKAHQEEIAGAFLVTLDPLISQLLTFQPFMQVVLDSKLDLPCELQFPQCLLLVVVMDKLPSQPKEVQTLWCTDSQVSETTTRISLLKAVFYSFEQCSGELSLPVHLQGLKSKGKAEVAVTLYQHVCVHLCTFITSFHPSLFAELDAALLNAVLSANMITSLLAMDAWCFLARYGTAELCAHHVTIVAHLIKSCPGECYQLINLSILLKRLFFFMAPPHQLEFIQKFSPKEAENLPLWQHISFQALPPELREQTVHEVTTVGTAECRKWLSRSRTLGELESLNTVLSALLAVCNSAGEALDTGKQTAIIEVVSQLWAFLNIKQVADQPYVQQTFSLLLPLLGFFIQTLDPKLILQAVTLQTSLLKLELPDYVRLAMLDFVSSLGKLFIPEAIQDRILPNLSCMFALLLADRSWLLEQHTLEAFTQFAEGTNHEEIVPQCLSSEETKNKVVSFLEKTGFVDETEAAKVERVKQEKGIFWEPFANVTVEEAKRSSLQPYAKRARQEFPWEEEYRSALHTIAGALEATESLLQKGPAPAWLSMEMEALQERMDKLKRYIHTLG
binds: [1] | [2] | [3] | [4]
